From PMC4012723
No constants are given. Whether binding was seen depends on the method and setting. For part of these data: Binding seen in cells or lysates may run through a third protein. Some results given as binding are weak or reduced against the parent protein; the word gives no strength. For part of these data: Sequences can lack the tags named with a protein. Each block holds one molecule with its values, some of them ahead of it.

Chains of the proteins cited; added tags and fusions are not shown.
UniProt Q9BXW9: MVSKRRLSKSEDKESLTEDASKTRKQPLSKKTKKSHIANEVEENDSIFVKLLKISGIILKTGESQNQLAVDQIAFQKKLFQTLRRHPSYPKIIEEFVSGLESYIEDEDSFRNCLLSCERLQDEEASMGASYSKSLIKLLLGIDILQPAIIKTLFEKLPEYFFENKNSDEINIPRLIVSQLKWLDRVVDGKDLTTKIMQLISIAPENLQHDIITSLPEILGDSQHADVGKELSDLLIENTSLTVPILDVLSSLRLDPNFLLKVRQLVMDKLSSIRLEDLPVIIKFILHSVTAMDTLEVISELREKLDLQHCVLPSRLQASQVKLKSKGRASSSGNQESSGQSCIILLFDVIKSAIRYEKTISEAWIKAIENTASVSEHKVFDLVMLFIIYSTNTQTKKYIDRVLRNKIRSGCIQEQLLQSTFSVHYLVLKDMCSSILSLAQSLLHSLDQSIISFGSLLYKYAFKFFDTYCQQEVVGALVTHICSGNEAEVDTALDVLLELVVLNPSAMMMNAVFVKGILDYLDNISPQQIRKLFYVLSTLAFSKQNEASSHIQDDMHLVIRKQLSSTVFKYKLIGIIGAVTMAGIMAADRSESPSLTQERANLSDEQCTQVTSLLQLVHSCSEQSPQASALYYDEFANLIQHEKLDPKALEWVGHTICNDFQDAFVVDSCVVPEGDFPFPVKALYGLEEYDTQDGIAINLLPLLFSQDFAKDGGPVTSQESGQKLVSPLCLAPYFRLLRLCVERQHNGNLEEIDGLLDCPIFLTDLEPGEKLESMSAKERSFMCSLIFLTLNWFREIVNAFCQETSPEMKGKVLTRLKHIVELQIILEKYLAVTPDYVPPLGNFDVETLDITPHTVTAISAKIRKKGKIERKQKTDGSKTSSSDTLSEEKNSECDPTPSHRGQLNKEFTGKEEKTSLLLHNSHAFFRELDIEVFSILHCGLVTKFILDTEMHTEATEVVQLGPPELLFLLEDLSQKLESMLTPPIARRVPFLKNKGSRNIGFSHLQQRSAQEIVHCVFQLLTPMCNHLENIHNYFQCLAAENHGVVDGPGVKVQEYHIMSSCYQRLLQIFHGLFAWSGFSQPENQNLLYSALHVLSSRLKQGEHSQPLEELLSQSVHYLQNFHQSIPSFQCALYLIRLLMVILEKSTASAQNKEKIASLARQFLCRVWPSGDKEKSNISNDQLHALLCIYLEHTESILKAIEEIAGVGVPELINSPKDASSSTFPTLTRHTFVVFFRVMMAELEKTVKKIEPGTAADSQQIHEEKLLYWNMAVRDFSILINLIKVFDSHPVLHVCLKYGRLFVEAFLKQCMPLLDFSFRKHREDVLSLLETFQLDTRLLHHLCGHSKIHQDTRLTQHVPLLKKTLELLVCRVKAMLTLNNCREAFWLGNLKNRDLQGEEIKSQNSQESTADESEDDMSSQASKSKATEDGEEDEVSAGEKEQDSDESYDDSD

Key:
GFP-fused MCM3 (human) = molecular target: T1, GFP-fused MCM3 (human) (UniProt P25205); assay: co-IP; CRL-1790 cells transiently co-transfected with GFP-MCM3 and Flag-wtFANCD2 or Flag-mtFANCD2 K561R, lysates 48 hr post-transfection; reverse IP-WB with Flag and GFP antibodies; washes in 20mM HEPES pH 7.9, 350mM NaCl, 0.1% NP-40
T1 sequence: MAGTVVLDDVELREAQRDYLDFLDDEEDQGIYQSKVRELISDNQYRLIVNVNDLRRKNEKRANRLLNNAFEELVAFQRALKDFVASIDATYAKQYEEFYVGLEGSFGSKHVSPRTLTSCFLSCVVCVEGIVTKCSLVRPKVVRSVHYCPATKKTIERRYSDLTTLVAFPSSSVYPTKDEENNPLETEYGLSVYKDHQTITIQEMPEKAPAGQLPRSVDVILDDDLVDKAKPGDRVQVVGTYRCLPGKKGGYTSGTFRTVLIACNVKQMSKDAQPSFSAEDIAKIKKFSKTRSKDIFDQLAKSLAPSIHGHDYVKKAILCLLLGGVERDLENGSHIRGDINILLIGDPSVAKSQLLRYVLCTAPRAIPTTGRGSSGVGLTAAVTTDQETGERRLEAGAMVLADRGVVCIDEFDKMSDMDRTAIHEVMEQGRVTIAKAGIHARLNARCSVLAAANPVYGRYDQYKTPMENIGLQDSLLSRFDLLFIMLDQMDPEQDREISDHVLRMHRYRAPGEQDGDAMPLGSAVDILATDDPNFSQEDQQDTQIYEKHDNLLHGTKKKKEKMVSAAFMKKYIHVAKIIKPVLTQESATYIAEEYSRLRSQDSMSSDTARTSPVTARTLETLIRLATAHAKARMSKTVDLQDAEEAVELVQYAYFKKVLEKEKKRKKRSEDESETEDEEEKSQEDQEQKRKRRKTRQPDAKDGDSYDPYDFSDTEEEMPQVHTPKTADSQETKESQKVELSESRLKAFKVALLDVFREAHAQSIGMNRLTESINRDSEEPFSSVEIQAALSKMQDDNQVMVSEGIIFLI

[1] = molecular target: T2, endogenous MCM3 (human (endogenous in CRL-1790)) (UniProt P25205); assay: co-IP; pooled gel-filtration fractions #21 to #25 of CRL-1790 nuclear extract; reverse IP-WB between endogenous FANCD2 and MCM3, MCM2 or MCM7
T2 sequence: T1 sequence

[2] = molecular target: T3, GFP-MCM3 Δ477-480aa (human) (UniProt P25205); assay: co-IP; CRL-1790 cells transfected with GFP-MCM3 or its deletion constructs; reverse IP-WB with GFP and FANCD2 antibodies against endogenous proteins
T3 sequence: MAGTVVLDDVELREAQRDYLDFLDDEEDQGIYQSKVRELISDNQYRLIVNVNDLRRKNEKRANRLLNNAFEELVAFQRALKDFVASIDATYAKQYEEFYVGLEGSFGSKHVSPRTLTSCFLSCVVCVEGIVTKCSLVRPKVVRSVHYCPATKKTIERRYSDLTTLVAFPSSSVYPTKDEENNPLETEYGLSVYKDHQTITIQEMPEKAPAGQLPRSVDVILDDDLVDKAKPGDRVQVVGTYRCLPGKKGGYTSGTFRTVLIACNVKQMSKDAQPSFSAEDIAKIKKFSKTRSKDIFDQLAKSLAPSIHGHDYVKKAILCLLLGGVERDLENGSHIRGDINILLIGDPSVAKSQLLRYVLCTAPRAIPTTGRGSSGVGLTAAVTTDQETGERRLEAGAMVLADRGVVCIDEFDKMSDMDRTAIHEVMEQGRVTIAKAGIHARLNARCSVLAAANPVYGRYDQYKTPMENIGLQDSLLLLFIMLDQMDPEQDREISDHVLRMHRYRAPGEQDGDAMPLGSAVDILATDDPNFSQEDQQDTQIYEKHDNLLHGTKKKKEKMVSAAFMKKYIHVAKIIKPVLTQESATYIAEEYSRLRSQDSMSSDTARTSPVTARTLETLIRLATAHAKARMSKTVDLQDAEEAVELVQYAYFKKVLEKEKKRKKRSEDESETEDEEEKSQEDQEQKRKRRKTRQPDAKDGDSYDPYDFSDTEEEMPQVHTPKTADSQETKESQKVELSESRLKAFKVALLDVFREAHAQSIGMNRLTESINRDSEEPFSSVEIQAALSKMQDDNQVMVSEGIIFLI

[3] = molecular target: T2, endogenous MCM3 (human (endogenous in CRL-1790)); assay: SEC; nuclear extracts of normally growing CRL-1790 stable cells on a Superose 6B column, 20mM HEPES pH 7.9, 200mM NaCl, 0.1% NP-40, 5% glycerol; fractions analysed by SDS-PAGE and immunoblotting; co-peaking of endogenous (and exogenous mtMCM3) proteins
[4] = molecular target: T2, endogenous MCM3 (human (endogenous in CRL-1790)); assay: co-IP; lysates of starvation-synchronized CRL-1790 cell pools enriched in G1 or S phase; reverse IP-WB of endogenous MCM3 and FANCD2
[5] = molecular target: endogenous FANCD2 (human (endogenous in CRL-1790)) (UniProt Q9BXW9); assay: co-IP; pooled gel-filtration fractions #21 to #25 of CRL-1790 nuclear extract; reverse IP-WB between endogenous FANCD2 and MCM3, MCM2 or MCM7
[6] = molecular target: endogenous FANCD2 (human (endogenous in CRL-1790)) (UniProt Q9BXW9); assay: co-IP; lysates of starvation-synchronized CRL-1790 cell pools enriched in G1 or S phase; reverse IP-WB of endogenous MCM3 and FANCD2
[7] = molecular target: Flag-wild type (wt) FANCD2 (UniProt Q9BXW9); assay: co-IP; CRL-1790 cells transiently co-transfected with GFP-MCM3 and Flag-wtFANCD2 or Flag-mtFANCD2 K561R, lysates 48 hr post-transfection; reverse IP-WB with Flag and GFP antibodies; washes in 20mM HEPES pH 7.9, 350mM NaCl, 0.1% NP-40
[8] = molecular target: endogenous FANCD2 (human (endogenous in CRL-1790)) (UniProt Q9BXW9); assay: co-IP; CRL-1790 cells transfected with GFP-MCM3 or its deletion constructs; reverse IP-WB with GFP and FANCD2 antibodies against endogenous proteins

Molecule: Flag-wild type (wt) FANCD2 (from UniProt Q9BXW9 1-1451)
binding (GFP-fused MCM3 (human)): binds

B1: endogenous MCM3 (protein, UniProt P25205 1-808)
chain: T1 sequence
binding [5]: binds
binding [6]: binds

B3: GFP-MCM3 Δ477-480aa (protein, UniProt P25205)
chain: T3 sequence
binding [8]: no binding

The remaining lines, values ahead:

binding [1]: binds
binding [2]: no binding
binding [3]: binds
binding [4]: binds
Molecule: endogenous FANCD2 (from UniProt Q9BXW9 1-1451)

binding [7]: binds
B2: GFP-fused MCM3 (protein, UniProt P25205 1-808)
chain: T1 sequence
